These are literature values, as cited in patent US11439651B2 (priority 2020, dated 2022).

In the case of `OC[C@@H](O)[C@H](O)[C@@H](O)CO` [Xylitol], the solubility in water entry is listed as “soluble in water”.
